These results are taken from the supplement of paper PMC8948288.

The sequences are guide strands of siRNAs; only the seed at positions 2 to 7 varies.

One series deals with GL261. As to the kind of experiment: cell viability relative to siNT1 (ATP content); H4 human neuroglioma and GL261 mouse glioma; higher = less toxic. Conditions: siRNA concentration 25 nM; 96 h; mouse.
Another series concerns H4. The description is as above. Conditions: siRNA concentration 10 nM; 96 h; human.
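Note: cells reverse transfected with siRNA duplexes via lipid reagent, ATP read by luminescence, triplicate wells, values scaled to mean viability with non-targeting control siNT1.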

As usually defined, the cell viability is a read-out of living cells in per cent, often relative to untreated cells. For the sequence UGACAGCACAUGUAAACCA, the values for the cell viability in the series on GL261 and in the series on H4 were 20.1% and 26.4%, respectively.

With UGACAGGACAUGUAAACCA, the cell viability in the series on GL261 amounted to 35.4%; with H4, 70%.

As for UGACAGUACAUGUAAACCA, the cell viability turned out to be 7.13% in the series with GL261 and 32.4% with H4.

Regarding UGACAUAACAUGUAAACCA, the cell viability is 45.4% in the series with GL261 and 81.8% with H4.

On to UGACAUCACAUGUAAACCA, for which the cell viability in the series with GL261 came out at 3.83%; with H4, 46.6%.

Regarding UGACAUGACAUGUAAACCA, the figures for the cell viability with GL261 and in the series on H4 were 34.2% and 89.9%, respectively.

As for UGACAUUACAUGUAAACCA, the cell viability in the series on GL261 was 29.7%; in the series on H4, 67.3%.

In the case of UGACCAAACAUGUAAACCA, the cell viability in the series on GL261 turned out to be 49%; in the series on H4 it was 110%.

Turning to UGACCACACAUGUAAACCA, the cell viability was 24.4% in the series on GL261 and 60.1% with H4.

Regarding UGACCAGACAUGUAAACCA, the cell viability with GL261 was found to be 39.9%; in the series with H4, 29.3%.

In the case of UGACCAUACAUGUAAACCA, the cell viability was found to be 30% in the series with GL261 and 88.2% in the series on H4.

Turning to UGACCCAACAUGUAAACCA, the cell viability turned out to be 27.3% in the series on GL261 and 74.3% in the series on H4.

Regarding UGACCCCACAUGUAAACCA, the cell viability with GL261 was 8.02%; in the series on H4, 34.7%.

On to UGACCCGACAUGUAAACCA, for which the cell viability in the series on GL261 was 36.4%; with H4, 103%.

Regarding UGACCCUACAUGUAAACCA, the cell viability was 13% with GL261 and 37% in the series with H4.

As for UGACCGAACAUGUAAACCA, the cell viability in the series with GL261 turned out to be 43.2%; with H4, 99.3%.

As to UGACCGCACAUGUAAACCA, the cell viability was determined as 32% in the series on GL261 and 66.6% in the series with H4.

With UGACCGGACAUGUAAACCA, the cell viability in the series on GL261 is 25%; in the series on H4, 71.9%.

Take UGACCGUACAUGUAAACCA: the cell viability with GL261 amounted to 20.9%; in the series with H4, 97.2%.

With UGACCUAACAUGUAAACCA, the cell viability was determined as 60.2% with GL261 and 90.2% in the series with H4.

As to UGACCUCACAUGUAAACCA, the cell viability in the series with GL261 is 19.7%; in the series on H4 it was 51.6%.

Turning to UGACCUGACAUGUAAACCA, the cell viability in the series on GL261 was 42%; with H4, 30.8%.

On to UGACCUUACAUGUAAACCA, for which the cell viability in the series on GL261 came to 22.7%; in the series on H4, 18.4%.

As to UGACGAAACAUGUAAACCA, the results for the cell viability in the series with GL261 and in the series on H4 were 109% and 98.2%, respectively.

As to UGACGACACAUGUAAACCA, the cell viability in the series with GL261 is 27.2%; in the series on H4 it was 55.9%.

For UGACGAGACAUGUAAACCA, the figures for the cell viability with GL261 and with H4 were 58.6% and 76.6%, respectively.

Consider UGACGAUACAUGUAAACCA, for which the figures for the cell viability with GL261 and with H4 were 87.5% and 78.3%, respectively.

Regarding UGACGCAACAUGUAAACCA, the cell viability came out at 33.4% in the series on GL261 and 93.8% in the series on H4.

Take UGACGCCACAUGUAAACCA: the results for the cell viability in the series with GL261 and in the series on H4 were 15.8% and 66.7%, respectively.

With UGACGCGACAUGUAAACCA, the values for the cell viability in the series with GL261 and in the series with H4 were 48.1% and 79.3%, respectively.

For UGACGCUACAUGUAAACCA, the figures for the cell viability in the series with GL261 and in the series on H4 were 35.3% and 70.8%, respectively.

For the sequence UGACGGAACAUGUAAACCA, the cell viability in the series on GL261 stood at 33.5%; with H4, 69%.

In the case of UGACGGCACAUGUAAACCA, the cell viability in the series on GL261 is 9.96%; in the series on H4 it was 8.87%.

Consider UGACGGGACAUGUAAACCA, for which the cell viability in the series on GL261 came to 7.43%; in the series on H4 it was 43.1%.

As for UGACGGUACAUGUAAACCA, the cell viability in the series with GL261 is 16%; with H4 it was 48%.

For the sequence UGACGUAACAUGUAAACCA, the cell viability with GL261 stood at 70.5%; with H4 it was 112%.

For the sequence UGACGUCACAUGUAAACCA, the cell viability with GL261 is 34.2%; in the series with H4 it was 76.5%.

On to UGACGUGACAUGUAAACCA, for which the cell viability in the series on GL261 was determined as 51.5%; with H4, 88.3%.

For UGACGUUACAUGUAAACCA, the cell viability in the series on GL261 was determined as 67.9%; with H4, 115%.

On to UGACUAAACAUGUAAACCA, for which the cell viability in the series with GL261 stood at 46.4%; in the series on H4, 75.6%.

Turning to UGACUACACAUGUAAACCA, the cell viability in the series with GL261 stood at 24.1%; in the series on H4, 71.3%.

Regarding UGACUAGACAUGUAAACCA, the figures for the cell viability with GL261 and in the series on H4 were 40% and 63%, respectively.

Regarding UGACUAUACAUGUAAACCA, the cell viability is 47.5% in the series on GL261 and 75.9% with H4.

As to UGACUCAACAUGUAAACCA, the values for the cell viability in the series with GL261 and in the series with H4 were 15.2% and 58.5%, respectively.

As to UGACUCCACAUGUAAACCA, the values for the cell viability in the series with GL261 and in the series with H4 were 4.14% and 20.7%, respectively.
